Experimental data published in US20220324876A1, “4-SUBSTITUTED PYRANO[3,4,b]PYRAZINE KAPPA AGONISTS FOR TREATING DRUG DEPENDENCY” (The Rockefeller University, priority 2019, published 2022).

molecular target: kappa opioid receptor (KOP-R, hOPRK1) (Homo sapiens, UniProt P41145); test: biochemical; conditions: Binding IC50 (nM), Table D; 1.0 nM [3H]U69,593, 60 min 30° C.
Chain of UniProt P41145 (P41145 whole entry): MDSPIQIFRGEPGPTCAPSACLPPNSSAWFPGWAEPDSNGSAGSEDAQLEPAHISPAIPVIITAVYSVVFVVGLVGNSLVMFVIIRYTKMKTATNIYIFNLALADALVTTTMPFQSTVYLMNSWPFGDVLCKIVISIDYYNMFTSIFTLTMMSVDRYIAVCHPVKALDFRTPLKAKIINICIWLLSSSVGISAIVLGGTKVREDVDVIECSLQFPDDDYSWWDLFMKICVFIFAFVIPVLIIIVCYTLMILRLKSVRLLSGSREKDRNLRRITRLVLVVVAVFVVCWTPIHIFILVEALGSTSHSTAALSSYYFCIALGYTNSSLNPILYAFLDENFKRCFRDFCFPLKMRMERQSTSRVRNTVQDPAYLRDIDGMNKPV

Row | Structure (SMILES) | IC50 [nM]
1 | O=C(Cc1ccc(Cl)c(Cl)c1)N1CCN(C(=O)c2cc[nH]n2)[C@@H]2COC[C@H](N3CCCC3)[C@H]21 (racemic) [rac-5A122] | 78
2 | O=C(Cc1ccc(Cl)c(Cl)c1)N1CCN(Cc2ccon2)[C@H]2COC[C@@H](N3CCCC3)[C@@H]21 [Example 5A86B] | 23
3 | O=C(Cc1ccc(Cl)c(Cl)c1)N1CCN(Cc2ncon2)[C@@H]2COC[C@H](N3CCCC3)[C@H]21 (racemic) [rac-5A100] | 22
4 | CC(C)(O)CN1CCN(C(=O)Cc2ccc(Cl)c(Cl)c2)[C@H]2[C@H](N3CCCC3)COC[C@@H]21 (single isomer, unassigned) [Example 5A90B] | 11
5 | O=C(Cc1ccc(Cl)c(Cl)c1)N1CCN(CCC2COC2)[C@H]2COC[C@@H](N3CCCC3)[C@@H]21 (single isomer, unassigned) [Example 5A142B] | 1480
6 | CCNC(=O)CN1CCN(C(=O)Cc2ccc(Cl)c(Cl)c2)[C@H]2[C@H]1COC[C@@H]2N1CCCC1 (racemic) [rac-5A112] | 254
7 | CS(=O)(=O)CCN1CCN(C(=O)Cc2ccc(Cl)c(Cl)c2)[C@H]2[C@H]1COC[C@@H]2N1CCCC1 (racemic) [rac-5A94] | 177
8 | CC(C)(O)CN1CCN(C(=O)Cc2ccc(Cl)c(Cl)c2)[C@H]2[C@H]1COC[C@@H]2N1CCCC1 (single isomer, unassigned) [Example 5A90A] | 28
9 | O=C(Cc1ccc(Cl)c(Cl)c1)N1CCN(CC2CCCO2)[C@@H]2COC[C@H](N3CCCC3)[C@H]21 (single isomer, unassigned) [Example 5A138C] | 31
10 | O=C(Cc1ccc(Cl)c(Cl)c1)N1CCN(C(=O)c2ccon2)[C@@H]2COC[C@H](N3CCCC3)[C@H]21 (racemic) [rac-5A97] | 12
11 | O=C(Cc1ccc(Cl)c(Cl)c1)N1CCN(Cc2cocn2)[C@@H]2COC[C@H](N3CCCC3)[C@H]21 (racemic) [rac-5A109] | 61
12 | O=C(Cc1ccc(Cl)c(Cl)c1)N1CCN(Cc2ncco2)[C@@H]2COC[C@H](N3CCCC3)[C@H]21 (racemic) [rac-5A111] | 6.5
13 | Cc1nnc(CN2CCN(C(=O)Cc3ccc(Cl)c(Cl)c3)[C@H]3[C@H]2COC[C@@H]3N2CCCC2)o1 (racemic) [rac-5A118] | 76
14 | COCCN1CCN(C(=O)Cc2ccc(Cl)c(Cl)c2)[C@H]2[C@H](N3CCCC3)COC[C@@H]21 (single isomer, unassigned) [Example 5A141B] | 21
15 | CC(F)(F)CN1CCN(C(=O)Cc2ccc(Cl)c(Cl)c2)[C@H]2[C@H]1COC[C@@H]2N1CCCC1 [Example 5A127A] | 6.2
16 | O=C(Cc1ccc(Cl)c(Cl)c1)N1CCN(Cc2ncccn2)[C@@H]2COC[C@H](N3CCCC3)[C@H]21 (racemic) [rac-5A69] | 191
17 | O=C(Cc1ccc(Cl)c(Cl)c1)N1CCN(C(=O)C2(O)CCC2)[C@H]2COC[C@@H](N3CCCC3)[C@@H]21 (single isomer, unassigned) [Example 5A128B] | 19
